# Data as given in PubChem BioAssay (NCI).
#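 Cells were grown in 96-well plates and exposed to each compound for 48 hours at five concentrations; endpoints were interpolated linearly between bracketing concentrations, or set to the highest concentration if not reached. The concentration for 50% growth inhibition is given as GI50. TGI is the concentration that stops growth completely.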
# System: NCI-H322M lung
# Assay: NCI tumour cell line growth inhibition, 48 h
Compound,GI50 [µM],TGI [µM]
CC(C)=CCc1c(O)cc(/C=C/c2cc(O)c3c(c2)C[C@@H]2C(C)(C)[C@H](O)[C@H](O)C[C@@]2(C)O3)cc1O,1.26,5.49
O=C(Nc1cc(C(F)(F)F)ccc1F)Nc1n[nH]c2ccccc12,> 100,> 100
CN1C(=O)CNC(=O)[C@H](NC(=O)c2nc3ccccc3cc2O)CSSC[C@H]1C(=O)NCCc1nc2ccccc2cc1O,> 61.8,> 100
CC1(c2ccc(Cl)cc2)CC(c2ccc(Cl)cc2)=C(C#N)C(=C(C#N)C#N)N1 (stereo not drawn),–,37.6
Cc1csc2nc(-c3ccc([N+](=O)[O-])cc3)c(/C=N/N=C(N)N)n12,–,3.5
O=C(Cn1nc(Br)c(Br)c1Br)c1ccccc1,–,> 100
CC(C)(C)[Si](C)(C)OCCCC#CCO,–,> 100
CCN(CC)CCOc1ccc(/C=C2\CC3C4CCC5=CC(=O)CC[C@]5(C)C4CC[C@]3(C)C2=O)cc1OC (stereo partly drawn),3.18,6.6
COc1cccc(/C=N\Nc2ccc([N+](=O)[O-])cn2)c1O,1.96,7.49
C#C[C@]1(O)CC[C@H]2[C@@H]3CC=C4c5sc(N=C(N)N)nc5CC[C@]4(C)[C@H]3CC[C@@]21C,1.39,2.7
COc1ccc(-c2n[nH]nc2-c2csc3ccccc23)cc1OC,7.79,> 100
CC(=O)OC1COC(S[As](C)C)C(OC(C)=O)C1OC(C)=O (stereo not drawn),6.57,19.6
CC(C)C(C/C=C1/CC(CO)(COC(=O)CC(C(C)C)C(C)C)OC1=O)C(C)C (stereo not drawn),–,23.2
Cc1ccc(/C=C/C(=O)c2c([O-])on[n+]2-c2ccccc2)cc1,–,19.4
CC1CCCC2=C1C(c1ccc(Cl)cc1)n1c(s/c(=C\c3ccc(Cl)cc3)c1=O)=N2 (stereo not drawn),–,> 100
CC(C)OP(=O)(CN(C)/C(F)=N\C(F)(F)F)OC(C)C,–,> 100
CCCN1C(=O)CCC2=C1CCc1c2ccc(Cl)c1Cl,–,> 100
CCCNC(=S)N/N=C/c1cccc(C)n1,–,> 100
CC(=O)O[C@@H]1CO[C@H]2O[C@H]3[C@@H](C(C=O)=C[C@H](O)[C@@H]4C5=C(C(C)C)CC[C@]5(C)CC[C@@]34C)[C@@]2(O)C1=O,–,2.6
CC(=O)OCC1OC(n2c(N)c(C#N)c(-c3ccccc3)c(C#N)c2=S)C(OC(C)=O)C(OC(C)=O)C1OC(C)=O (stereo not drawn),–,> 100
NC(=O)CCC(NCc1c2ccccc2[n+]([O-])c2ccccc12)C(=O)O (stereo not drawn),–,> 100
COC(=O)c1ccccc1NC(=O)/C(=N\NC(C)(C)C)C(C#N)c1nc(-c2ccc([N+](=O)[O-])cc2)cs1 (stereo not drawn),–,> 100
CCC1CC2CN3CCc4c([nH]c5c(-c6c(OC)ccc7c8c([nH]c67)[C@]6(C(=O)OC)CC7CC(CC)C6N(CC8)C7)c(O)ccc45)[C@](C(=O)OC)(C2)C13 (stereo partly drawn),–,34.5
O=P(O)(O)C(CSc1ccccc1)P(=O)(O)O,–,> 100

Compound,GI50 [µM],TGI [µM]
C1COC(NC(C2CC2)C2CC2)=N1,–,> 100
COCCOC(=O)C1=C(C)NC2=C(C(=O)CC(c3ccccc3OC)C2)C1c1cccc(O)c1 (stereo not drawn),8.74,> 100
COc1ccc(C(O)CNC(=O)c2ccccc2)cc1 (stereo not drawn),–,> 100
NC1C/C(=N\O)c2c(I)sc(I)c21 (stereo not drawn),–,31.1
Nc1nc(Cl)cc(NCC2(CO)CCC(Cc3ccccc3)C2)n1 (stereo not drawn),–,> 100
O=C1C=C(Nc2ccccc2C(=O)CC(=O)C(=O)Nc2cccc(C(F)(F)F)c2)c2ccccc2C1=O,–,> 92.3
N=C(c1ccccc1)N(O)C1CCCCC1,–,> 100
CC(=O)Nc1ncc(Sc2ccccc2C(=O)O)s1,–,> 100
CCOc1ccccc1/C=C1\NC(=O)N(/C=C2\C(=O)Oc3ccccc3C2=O)C1=O,–,> 100
COC(=O)CCC(=O)c1c(C)[nH]c(/C=C2\N=C(c3ccc[nH]3)C=C2OC)c1C,11.6,24.2
COC(=O)CC1(CNC(=O)OCc2ccccc2)OCCO1,–,> 100
C=C=C(C)[Si](C)(C)C,–,> 100
O=C1c2ccccc2-c2nc(-c3cccnc3)cc3c2c1nc1ccccc13,–,> 100
C=C1c2c(cc3c(c2O)c(=O)c2ccccc2n3C)OC1(C)C,–,> 100
O=C(OCCOCBr)c1ccccc1,–,> 100
CC(C)C(=O)N[C@@H](C)C(=O)N(Cc1ccc2ccccc2c1)N=O,–,> 100
CCC[CH2][Sn]([CH2]CCC)([O]C(=O)c1cccc(F)c1)[O]C(=O)c1cccc(F)c1,0.929,2.18
O=C(CN1CCN(C(=O)OCc2ccccc2)CCN(CC(=O)N2CCCCC2)CCN(C(=O)OCc2ccccc2)CC1)N1CCCCC1,–,> 47
CC1(O)CC2C(CC1SCCO)C2(C)C (stereo not drawn),–,> 100
CCOP(=O)(/C=C\n1cnc2c(=O)n(C(C)=O)c(N)nc21)OCC,–,> 100
CCC[C@H](N[C@@H]1CCc2cc(F)cc(F)c2C1)C(=O)Nc1cn(C(C)(C)CNCC(C)(C)C)cn1,31.8,> 100
CCCCCCCCCCCC(=O)OCC1OC(n2cc(F)c(=O)[nH]c2=O)C(N)C(OC(=O)CCCCCCCCCCC)C1O (stereo not drawn),–,> 100
NC1CC(=O)c2csc(Br)c21 (stereo not drawn),–,> 83
CC(=O)OC1CCn2nnc(COC(=O)NC(C)C)c21 (stereo not drawn),–,> 100

Compound,GI50 [µM],TGI [µM]
CCCCCCCCCCCCCCCC(=O)OCC(O)C1OC(=O)C(O)=C1O (stereo not drawn),–,77.6
Cc1cc(NS(=O)(=O)c2ccc(NC(=O)c3cccc4c(N)c5ccccc5nc34)cc2)no1,–,43.4
O=c1ccccc2cccc(O)c12,–,> 100
CN1CCN(c2ccc3c4c(cccc24)C(=O)N(CCN2CCN(CCCN4CCN(CCN5C(=O)c6cccc7c(N8CCN(C)CC8)ccc(c67)C5=O)CC4)CC2)C3=O)CC1,4.45,11.9
O=C1OC(c2ccc(O)c(-c3ccccc3)c2)(c2ccc(O)c(-c3ccccc3)c2)c2c(Cl)c(Cl)c(Cl)c(Cl)c21,–,> 100
CCCNCc1nc2ccc(Br)cc2c(=O)n1CCC,–,31.2
O=C(Nc1ccc(Br)cc1)Nc1n[nH]c2ccccc12,–,> 63.4
CC(C)(C)c1ccc(CN2CCN(C(c3ccccc3)c3ccc(Cl)cc3)CC2)cc1 (stereo not drawn),–,> 100
CC(C)(C)c1ccc([I+]c2ccc(C(C)(C)C)cc2)cc1,4.08,15
ClCCN(CCCl)c1ccc(-n2cnc3c(Cl)ncnc32)cc1,1.92,3.55
O=C(O)CSc1cc(-c2ccccc2)nc2ccccc12,–,> 100
O=C1NC2(CCCCC2)N=C2C(Cl)CCCC12Cl (stereo not drawn),–,> 100
C=C1CC(CCCl)(c2ccccc2)OC1=O (stereo not drawn),–,> 100
O=C(O)/C(=C/c1ccccc1[N+](=O)[O-])c1ccccc1,–,> 100
CC(=O)OC12c3ccccc3C1CCCCCC21OCCCO1 (stereo not drawn),–,> 100
O=C(N/N=C1\CCc2ccccc2C1)N/N=C1\CCc2ccccc2C1,–,> 10
CO[C@@H]1[C@@H](OC2OC(C)C(OC3CC(C)(O)C(OC(=O)CC(C)C)C(C)O3)C(N(C)C)C2O)[C@@H](CC=O)C[C@@H](C)C(=O)/C=C/C2O[C@H]2C[C@@H](C)OC(=O)C[C@H]1OC(C)=O (stereo partly drawn),–,57.5
N#Cc1ccccc1C#C/C=C\C#Cc1ccc(OCCCNC(=O)c2cc3ccccc3[nH]2)cc1,27.5,93.9
COc1cc(N=NN(C)C)c(C(C)c2c3cc(OC)c(OC)cc3cc[n+]2C)cc1OC (stereo not drawn),–,> 100
CCCCC(=O)N/N=C/c1cc(I)cc(I)c1O,3.49,26.9
CC(NS(C)(=O)=O)c1ccccc1 (stereo not drawn),–,> 100
CC(=O)OC1CC2CCC1(C)C2(C)C (stereo not drawn),–,> 100
CCOc1ccc2c(c1)/C(=C(\C(Cl)=C(Cl)Cl)[N+](=O)[O-])N2,–,> 100
